Measured values as given in article PMC4336329 (PLoS ONE, 2015).
Screen size: about 310,000 compounds; about 14,000 (4.5%) showed an effect of 50% or more. Effects have a minus sign here. Some of the results follow.

Each compound was assayed against human ether-à-go-go-related gene (hERG) potassium channel (human, UniProt Q12809) (assay: primary screen, population patch clamp on CHO cells stably expressing hERG).
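Note: peak tail current of the secondary pulse compared with the same well before compound.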

Sequence of human ether-à-go-go-related gene (hERG) potassium channel (Q12809 whole entry, looked up): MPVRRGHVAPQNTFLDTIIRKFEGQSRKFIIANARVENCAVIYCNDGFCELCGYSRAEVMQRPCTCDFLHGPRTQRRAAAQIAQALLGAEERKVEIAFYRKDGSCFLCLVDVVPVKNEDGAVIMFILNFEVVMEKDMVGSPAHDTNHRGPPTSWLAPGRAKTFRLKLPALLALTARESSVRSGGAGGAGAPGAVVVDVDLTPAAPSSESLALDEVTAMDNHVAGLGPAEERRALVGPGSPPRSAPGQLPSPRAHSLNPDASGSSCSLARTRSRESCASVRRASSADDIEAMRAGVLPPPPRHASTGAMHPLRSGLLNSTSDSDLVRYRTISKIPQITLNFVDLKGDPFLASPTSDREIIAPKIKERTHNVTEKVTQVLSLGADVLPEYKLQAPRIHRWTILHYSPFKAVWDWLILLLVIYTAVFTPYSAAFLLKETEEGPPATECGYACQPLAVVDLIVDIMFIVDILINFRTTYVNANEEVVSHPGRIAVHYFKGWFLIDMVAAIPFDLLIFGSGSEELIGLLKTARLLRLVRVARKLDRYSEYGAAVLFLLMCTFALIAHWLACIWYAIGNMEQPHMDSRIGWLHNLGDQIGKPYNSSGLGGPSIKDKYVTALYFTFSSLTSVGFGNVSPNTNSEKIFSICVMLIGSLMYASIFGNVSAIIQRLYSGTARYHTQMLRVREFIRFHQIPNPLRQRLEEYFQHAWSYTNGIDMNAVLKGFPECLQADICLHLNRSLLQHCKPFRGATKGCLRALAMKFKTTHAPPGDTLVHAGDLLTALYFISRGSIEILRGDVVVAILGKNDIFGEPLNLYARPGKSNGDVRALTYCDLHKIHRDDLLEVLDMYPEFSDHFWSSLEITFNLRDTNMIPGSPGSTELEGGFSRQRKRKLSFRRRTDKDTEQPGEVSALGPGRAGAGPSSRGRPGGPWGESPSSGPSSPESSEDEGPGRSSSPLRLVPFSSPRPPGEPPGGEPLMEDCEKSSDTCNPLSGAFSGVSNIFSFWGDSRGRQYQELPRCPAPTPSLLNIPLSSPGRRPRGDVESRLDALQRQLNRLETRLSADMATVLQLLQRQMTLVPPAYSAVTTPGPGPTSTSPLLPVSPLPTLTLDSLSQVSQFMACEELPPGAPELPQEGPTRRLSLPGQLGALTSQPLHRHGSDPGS

Row | Structure (SMILES) | hERG current change (%, negative = inhibition) at 10uM
1 | CC1CCCC(C)N1/N=C/c1ccc([N+](=O)[O-])cc1 (centres unmarked) | -16.2%
2 | CC1(/[N+]([O-])=C/c2ccccc2F)CCCCC1=O (centres unmarked) | 25.2%
3 | Cc1cc(C(=O)NNC(=O)COc2c(C)cc(Br)cc2C)n[nH]1 | 18%
4 | CCOc1ccccc1NC(=O)COC(=O)/C=C/c1ccc(OC)c(OC)c1 | 19.9%
5 | CSc1ccc(NC(=O)Nc2cc(C)ccn2)cc1 | 16.1%
6 | CC(C)(C)CN1C(=O)C(=O)NC[C@H]1Cc1ccc(O)cc1 | -1.88%
7 | Cc1ccc(NC2=NCCCCC2)cc1C.Cl | 12.1%
8 | Cc1cc(N(CN2CCCC2=O)C(=O)c2ccc(OC(C)C)cc2)no1 | -2.94%
9 | C/C(=N\NC(=O)c1ccccc1[N+](=O)[O-])c1ccc(Br)s1 | -9.32%
10 | O=C(NCCc1cccs1)c1ccc(Cl)c(Cl)c1 | -1.24%
11 | Cc1cc(-c2c(C)[nH]n(-c3ccc(Cl)cc3)c2=O)n(-c2ccccc2)n1 | 12.8%
12 | CC(=O)NCC(=O)Nc1ccc(Br)cc1C(=O)c1ccccc1 | -19%
13 | CCOC(=O)c1nnn(CC(=O)N2N=C(c3ccc(Cl)cc3)CC2c2ccc(OC)cc2)c1C(=O)OCC (centres unmarked) | -12%
14 | Cc1cc(C)cc(N(CC(=O)O)S(=O)(=O)c2c(C)[nH]c(=O)[nH]c2=O)c1 | 15.9%
15 | O=C(NNC1=Nc2ccccc2SC1)c1ccccc1F | 18.6%
16 | Cc1ccccc1C(=O)NNC(=S)NC(=O)COc1ccccc1 | 13.3%
17 | CC(C)N(C(=O)Cn1cc(SCC(N)=O)c2ccccc21)C(C)C | 7.8%
18 | COc1ccc(S(=O)(=O)Nc2ccc(C)cc2)cc1N(C)S(=O)(=O)c1ccc(Cl)cc1 | -3.56%
19 | Cc1cc2ncn(C(=O)c3c(-c4ccccc4)noc3C)c2cc1C | -23.7%

Row | Structure (SMILES) | hERG current change (%, negative = inhibition) at 10uM
20 | CC(C)(C)OC(=O)N1CCC(c2c(C(=O)NCC3CCN(C4CCCC4)C3)cnn2-c2cccc(Cl)c2)CC1 (centres unmarked) | -21.1%
21 | CCOc1ccc(CCNc2nc3ccccc3n3cnnc23)cc1OCC | -11.6%
22 | CCCNC(=S)N1CCCC(c2nc3ccccc3[nH]2)C1 (centres unmarked) | -47.3%
23 | Fc1cccc(CCN2CCN=C2Nc2ccccc2)c1 | -18.1%
24 | CCOc1ccc(NC(=O)NCc2ccco2)cc1 | 16.4%
25 | Cn1cnc2c(oc3ccccc32)c1=O | 9.26%
26 | CCc1ccc(/C(C)=N/NC(=O)c2c[nH]c3ccccc23)s1 | 17.1%
27 | CC1=NN(c2nc(-c3ccc(C)cc3)cs2)C(=O)C1N=Nc1ccccc1O (centres unmarked) | 9.21%
28 | COc1ccccc1CNC(=O)C1CC(c2ccccc2F)=NO1 (centres unmarked) | -8.13%
29 | COC(=O)c1sc(N2C(=O)c3oc4ccccc4c(=O)c3C2c2cccc(O)c2)nc1C (centres unmarked) | -29.9%
30 | C=CCc1cc(OC)ccc1OCCOCCC(C(=O)OCC)C(=O)OCC | -2.91%
31 | Cc1ccc(N(C(=O)CNC(=O)c2ccco2)C(C(=O)NC2CCCC2)c2ccncc2)cc1F (centres unmarked) | -5.85%
32 | CCN(CC)c1nc(C)nc2c1cnn2CCc1ccccc1.Cl | -3.51%
33 | COc1cc(C(=O)N2CCN(c3cccc(C)c3C)CC2)cc(OC)c1OC | -12.2%
34 | O=C(O)C1CCCN1S(=O)(=O)c1cc(Cl)ccc1Cl (centres unmarked) | -0.53%
35 | O=C(Nc1ccc(N2CCN(C(=O)c3ccc(Cl)cc3)CC2)cc1)c1ccc2c(c1)OCCO2 | -8.29%
36 | O=C(NC(=S)Nc1ccc2c(c1)OCCO2)c1cccc2ccccc12 | -0.118%
37 | CCOc1cccc2cc(C(=O)NCc3ccc(Cl)cc3)c(=N)oc12 | 19.2%
38 | CCOc1ccc(CC(=O)NNC(=S)NCCc2ccccc2)cc1 | 5.62%

Row | Structure (SMILES) | hERG current change (%, negative = inhibition) at 10uM
39 | CCOC(=O)C1(CCOc2ccccc2)CCN(Cc2ccc3c(c2)OCCO3)CC1 | -73.3%
40 | O=C(CCNS(=O)(=O)c1cccc2nsnc12)N1CCN(c2ccccn2)CC1 | -24%
41 | O=c1[nH]c(/C=C\c2cccs2)nc(O)c1[N+](=O)[O-] | -4.76%
42 | CCN(CC(=O)NCc1cccs1)C(=O)c1cccc(S(=O)(=O)Nc2ccc(C)cc2)c1 | 0.432%
43 | COc1ccc(S(=O)(=O)Nc2cccc(S(=O)(=O)NC3=NCCC3)c2)cc1[N+](=O)[O-] | 18.6%
44 | CC(=O)Nc1cc2c3c(c1)CCN3C(=O)CC2 | 23.4%
45 | ClC1=C(Cl)C2(Cl)C3C(Cl)C=CC3C1(Cl)C2(Cl)Cl (centres unmarked) | 5.58%
46 | Cc1ccc(-c2nn(CC(=O)NCCN3CCOCC3)c(=O)c3ccccc23)cc1 | -16.1%
47 | COc1ccc(N=Cc2nc(-c3ccco3)oc2O)cc1 | -7.62%
48 | Cc1ccc(Cl)cc1NS(=O)(=O)N1CCOCC1 | 4.3%
49 | Cc1cc(C)cc(NC(=O)CN2CCC(NC(=O)c3ccccc3F)CC2)c1 | -13%
50 | Cc1ccc(-n2nnnc2SCC(=O)Nc2nc(-c3ccc(F)cc3)cs2)cc1C | 1.81%
51 | COc1ccc2c(c1)C(c1ccc(C)o1)=NNC(c1cccnc1)=N2 | -8.45%
52 | COc1ccccc1C(=O)Nc1ccnn1C1CCN(CC2CC=CCC2)CC1 (centres unmarked) | -82.3%
53 | O=C(Nc1cccnc1)C1CCC(CNS(=O)(=O)c2cccc3nsnc23)CC1 (centres unmarked) | -15.3%
54 | COc1cccc(C(=O)Nc2ccc3c(c2)C(=O)N(CC2CCCO2)C3=O)c1 (centres unmarked) | -28.8%
55 | Cc1ccccc1NC(=O)CN1C(=O)NC(C)(c2ccc3c(c2)OCO3)C1=O (centres unmarked) | 9.53%
56 | NNC(=O)c1ccc(Cn2cccn2)o1 | 5.58%
